Data reported in the supplement of paper PMC3334620.
The full ranking holds about 33,000 sequences; the median of “E-score (-0.5 to 0.5)” is about -0.012, and the highest 2% start at about 0.29. This is one part of the list.

Each sequence was assayed against T1, Ybr033w (UniProt P38073) (assay: PBM E-score (8-mer binding enrichment) (E-score (-0.5 to 0.5)); higher = stronger / more preferred TF binding; most listed sequences are background and not binding sites). Conditions: protein concentration: 200 nM; construct: GST-full length.
T1 sequence: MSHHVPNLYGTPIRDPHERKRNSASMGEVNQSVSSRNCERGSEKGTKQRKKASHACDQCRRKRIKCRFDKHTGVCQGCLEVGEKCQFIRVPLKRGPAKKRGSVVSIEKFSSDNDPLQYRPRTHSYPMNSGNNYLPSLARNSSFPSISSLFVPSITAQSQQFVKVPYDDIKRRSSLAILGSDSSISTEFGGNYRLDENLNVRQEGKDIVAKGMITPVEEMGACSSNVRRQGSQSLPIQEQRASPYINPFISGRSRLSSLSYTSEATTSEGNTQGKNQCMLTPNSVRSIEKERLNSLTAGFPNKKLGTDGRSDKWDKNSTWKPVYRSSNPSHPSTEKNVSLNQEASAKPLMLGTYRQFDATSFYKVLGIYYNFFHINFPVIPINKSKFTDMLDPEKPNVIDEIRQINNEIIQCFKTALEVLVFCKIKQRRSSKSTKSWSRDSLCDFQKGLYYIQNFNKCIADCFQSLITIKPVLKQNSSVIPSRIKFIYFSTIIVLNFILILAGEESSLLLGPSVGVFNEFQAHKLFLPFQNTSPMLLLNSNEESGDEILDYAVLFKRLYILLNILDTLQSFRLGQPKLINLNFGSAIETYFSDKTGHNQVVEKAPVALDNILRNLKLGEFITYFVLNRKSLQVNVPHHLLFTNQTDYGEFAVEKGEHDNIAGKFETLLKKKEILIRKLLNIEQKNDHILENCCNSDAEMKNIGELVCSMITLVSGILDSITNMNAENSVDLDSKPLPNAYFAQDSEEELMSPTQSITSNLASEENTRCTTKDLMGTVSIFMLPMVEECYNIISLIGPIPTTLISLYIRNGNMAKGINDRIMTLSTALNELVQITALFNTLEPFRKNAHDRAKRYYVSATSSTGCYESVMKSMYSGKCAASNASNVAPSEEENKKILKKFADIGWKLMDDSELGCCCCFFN
Procedure: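 Universal 'all 10-mer' protein binding microarrays (Agilent AMADID 015681) probed with GST-tagged S. cerevisiae TFs (full-length or DBD) made by in vitro transcription/translation (PURExpress), about 100-200 nM. Bound TF was detected with fluorescent anti-GST. Each ungapped 8-mer (which stands for itself and its reverse complement) is scored by the PBM enrichment score (E-score), a modified Wilcoxon-Mann-Whitney statistic from -0.5 to +0.5, computed with the Universal PBM Analysis Suite. Scale: above 0.35 generally sequence-specific binding.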

Row | Sequence | PBM E-score
1 | GAGCCAGC | -0.0814
2 | GTGTTCAA | 0.117
3 | CGAATAAC | 0.07
4 | ACCGAGGT | -0.143
5 | CCCCCGAC | -0.193
6 | CCTCACCG | -0.286
7 | CGAAGTTA | 0.141
8 | CTCTCTTA | 0.0563
9 | AAAGCGGC | 0.0274
10 | AGTGCTCA | -0.0918
11 | AGACGTGG | 0.0212
12 | ACTTTAAA | 0.253
13 | TATATTAA | 0.324
14 | ACTGCGAC | 0.00394
15 | AAACGAGG | -0.0386
16 | ACCGCTAG | -0.172
17 | CTAGGTAA | 0.015
18 | AACTTGTC | 0.124
19 | CAGTAGCG | -0.0386
20 | TAACTCGA | 0.183
21 | ACACGTGA | 0.0286
22 | AAAGGAGT | 0.00926
23 | ACCTGGTG | -0.101
24 | GATGTACA | 0.0996
25 | GACTGAAC | -0.217

Row | Sequence | PBM E-score
26 | CGTCAGGA | 0.00965
27 | AATCGCGG | 0.0607
28 | GGTCCAAC | -0.192
29 | CACCTGCC | -0.159
30 | ACAGAATC | -0.0758
31 | AGATGTAT | 0.176
32 | AATGGATA | 0.0899
33 | GATGACAC | -0.192
34 | CAACGATG | -0.0442
35 | AACTTTCG | 0.0707
36 | ACGCCCGC | -0.256
37 | GTTCAGCA | -0.0295
38 | GTGGGCCA | -0.116
39 | CATCGTCA | 0.0638
40 | AGGAAAAG | 0.038
41 | CCCTCTGA | -0.196
42 | GTCTGTCA | -0.0435
43 | ATCGAGGC | -0.159
44 | CCCTTTAC | -0.152
45 | AAAAAGTA | 0.283
46 | AACAGTAA | 0.173
47 | AATCTGCG | -0.0804
48 | ACTAGAGT | 0.0751
49 | ACAGCTCT | -0.291
50 | CTCTAGAG | -0.142

Row | Sequence | PBM E-score
51 | ACTGTTAA | 0.16
52 | CATTAGGA | 0.0409
53 | TATTAAAA | 0.312
54 | GAAGACTC | -0.0221
55 | GGTCGTAC | -0.0313
56 | GGGTGGAA | -0.134
57 | ACCGCGGT | 0.0405
58 | AGGTAGAT | -0.143
59 | ATATATCC | 0.372
60 | CCCTTCCG | -0.092
61 | TACCAGTA | 0.00281
62 | ATATCGGC | -0.0651
63 | CTATCCTC | 0.0453
64 | GGAAGTAC | -0.0324
65 | GTGCTGAA | 0.057
66 | ACCGACGA | -0.172
67 | GTCCCGAC | -0.119
68 | CAAGGTTC | -0.204
69 | CCCAACTC | 0.155
70 | GACAAGAA | 0.205
71 | AAAACCTT | -0.00181
72 | CATGGGCC | -0.228
73 | GACGTCGC | -0.227
74 | ACGCATTG | -0.0453
75 | CTGCAAAA | 0.022

Row | Sequence | PBM E-score
76 | CGCCAGAG | -0.045
77 | ATTAGAAT | 0.225
78 | AACGCGAT | 0.0217
79 | ATTACAGC | -0.21
80 | CCGAGATC | -0.155
81 | CAGAACCA | -0.0489
82 | AAAAGATG | 0.193
83 | GATCGTAA | 0.0355
84 | CATTTCGA | 0.174
85 | GAGCGGGA | -0.0612
86 | TCATTGAA | -0.00324
87 | CTGGAATC | -0.00413
88 | GGGCACAC | -0.123
89 | CACAGGCC | -0.283
90 | AAGCCAAA | 0.107
91 | ACGTTGAG | 0.00985
92 | AACTATGC | 0.155
93 | CTTTAACC | 0.0112
94 | CCGGAAGG | 0.0448
95 | TAGAATAA | 0.205
96 | ATAAACTG | 0.266
97 | CATAGCCC | -0.144
98 | AAATTATA | 0.215
99 | CATCTGGC | -0.12
100 | CTCAGTAA | 0.148

Row | Sequence | PBM E-score
101 | CTGGCCGC | -0.0871
102 | GAATAAGA | 0.0352
103 | CTTGGTGA | -0.0613
104 | CCTGAGTA | 0.155
105 | AATTAAGC | 0.169
106 | AAATGCTG | -0.00629
107 | AGCGATGG | -0.292
108 | GTACTAAC | 0.151
109 | CATCAAGG | -0.0621
110 | GTCGCTGA | 0.0119
111 | GACCACAA | -0.0851
112 | AATGGTAG | 0.0754
113 | CCAATTAC | 0.0522
114 | ACATACAG | 0.0812
115 | GAGACTAC | -0.0915
116 | AAGACTGA | -0.0518
117 | CCGAAAAC | 0.072
118 | ACCTACAG | 0.0954
119 | CTCCGTGA | -0.162
120 | CATCGTGC | 0.0362
121 | ATCCCGCA | 0.00022
122 | AACCGTCG | -0.162
123 | CCTATGCG | -0.147
124 | GTCCTTGA | -0.0584
125 | AAAAGCGA | 0.171

Row | Sequence | PBM E-score
126 | ATGCCCCC | -0.358
127 | AACCCCCC | -0.445
128 | CTAACTGC | -0.0759
129 | CGCAGAGC | -0.0602
130 | GCATCTTA | 0.179
131 | ACCCTTTA | -0.141
132 | CAATATCG | 0.102
133 | ACGGCAAA | -0.0846
134 | AGCCCCCC | -0.407
135 | GCTTAGGA | -0.0915
136 | ATTATAAG | 0.237
137 | GAGGGCAC | -0.323
138 | CCATTACA | 0.0813
139 | CGGAGCCA | -0.0955
140 | AACCCCTA | -0.135
141 | GCCAGCGC | -0.123
142 | ACTCGTAG | -0.0252
143 | AGACCGCG | -0.147
144 | ACAATTAC | 0.202
145 | TCTAAGAA | 0.282
146 | ATACTTGA | -0.0558
147 | AGAGATAG | 0.174
148 | GCCGGGCA | -0.289
149 | AAGGTACG | 0.0929
150 | ACTTTGGG | -0.0137

Row | Sequence | PBM E-score
151 | GTGAATGA | 0.00677
152 | CAGACTGC | -0.14
153 | AGAGCCTG | -0.0892
154 | GCAATGCA | -0.0811
155 | ACTGGTTG | 0.148
156 | ATCAACGG | 0.152
157 | AGCCGATC | 0.0222
158 | CAGATACC | 0.0326
159 | CCTATCAG | -0.0603
160 | GAAAATGC | 0.104
161 | AGTCAGAC | -0.189
162 | CCACCTGG | -0.179
163 | ATTTGTGC | 0.205
164 | CGTGGTAA | 0.0588
165 | ATGTTTCG | 0.0812
166 | CCCTTGAA | -0.119
167 | ATCCACCG | 0.129
168 | TAAGGAGA | -0.0603
169 | ACCGCTAT | -0.0406
170 | CGATATGC | 0.0496
171 | GGTTCTAA | 0.0421
172 | CATTACAC | 0.0933
